Measurements as given in the supplement of paper PMC6531468.
The other results are listed elsewhere or left out. Values come from read counts of a selection and are noisy. Each score is taken over the longer molecules that contain the sequence shown.

test system: IMP3 KH3-4; experiment: 6-mer SELEX enrichment z-score vs GST control; IMP3 is the RNA-binding protein IGF2BP3; higher = more enriched by binding; settings: construct: KH3-4 (377-579); SELEX round: R4
Procedure: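 SELEX-seq with GST-tagged IMP3 KH3-4 (Pro377-Lys579) and an N40 RNA pool, round 4. 6-mer z-score of sequence-tag enrichment normalised to the corresponding GST SELEX round; RNA k-mers written as DNA (T for U).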

Sequence of IMP3 KH3-4 (chain, as listed by the source): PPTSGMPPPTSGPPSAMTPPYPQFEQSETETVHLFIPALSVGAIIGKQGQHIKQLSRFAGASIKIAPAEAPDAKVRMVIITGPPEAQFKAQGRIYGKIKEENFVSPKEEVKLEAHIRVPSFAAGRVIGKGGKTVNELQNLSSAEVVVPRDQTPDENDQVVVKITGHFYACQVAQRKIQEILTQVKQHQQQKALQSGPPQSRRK

Row | Sequence | 6-mer SELEX enrichment z-score
1 | CGTTGA | -0.786
2 | ATGATG | 1.83
3 | GCCTGT | -0.295
4 | TATCAA | 0.733
5 | CTCGTG | -0.804
6 | TTCATC | 0.646
7 | GTCACT | 0.124
8 | GATTCG | 0.087
9 | GAAGAT | 1.28
10 | TGCAAC | -0.076
11 | TAATCA | 1.47
12 | AATCAA | 0.637
13 | GCGCCA | -0.555
14 | CTACAT | 0.995
15 | CCTCCC | -1.3
16 | GGCGAC | -0.307
17 | ACCCTA | -1.75
18 | ATGCCT | -0.528
19 | TATTAG | 1.19
20 | CTTCTG | 0.038

Row | Sequence | 6-mer SELEX enrichment z-score
21 | GCCTGG | -0.54
22 | TTCTAC | 0.351
23 | GAGGCG | 0.747
24 | TCAGCG | -1.18
25 | CTACCT | -0.972
26 | CCAAGC | -1.85
27 | GGCTGT | 0.443
28 | ACCGGT | -0.35
29 | GTGCCC | -1.79
30 | GAGCAG | -0.676
31 | CCAGCG | -2.14
32 | ATCACC | -0.485
33 | TCGCGC | -0.652
34 | TTAAAT | 1.94
35 | ATGACA | 1.91
36 | CCTAAC | -1.58
37 | GGCGTG | -0.86
38 | GGGTTC | 0.295
39 | GTTACG | 0.004
40 | GGGTCC | -0.093
